In all, about 340,000 compounds went through this assay and about 12,000 (3.5%) were called active. This list was built around the results that the source calls inconclusive (neither active nor inactive); the mix of calls is not that of the screen. Calls follow the shape of the dose curve; as a rule, active = well fitted inhibition curve with a large enough effect; inconclusive = small, poorly fitted or top-dose-only effect, or another doubt; inactive = no such curve, though single readings can be large or run the other way. Potencies of inconclusive entries are left out as doubtful fits.
Assay: qHTS Assay for Inhibitors of Hepatitis C Virus (HCV)
Conditions: Huh7.5.1 HCVcc-Cre (HCVcc is cell-culture hepatitis C virus) infection, luciferase reporter, 44 h; series mostly up to 41.8 µM
How it was run: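 HCVcc-Cre virus at an moi near 0.5 was added right after compound to cells cultured 4 h from seeding (1,000 cells/well). Luciferase activity was determined 44 h later, 15 min after substrate addition at RT.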
Potency is read from the fitted curve at half-maximal effect; tags tell the direction and shape of the fitted curve.

Row | Structure (SMILES) | Potency
1 | Cc1ccc(-c2csc(NCCn3c(-c4ccncc4)nc4ccccc43)n2)cc1 | inconclusive [inhibitor, partial curve]
2 | CCc1cc(-c2onc(C)c2-c2cscn2)c(O)cc1OC | inconclusive [inhibitor, single point]
3 | CCOC(=O)c1c(-c2ccc(OC)cc2)csc1NC(=O)C1CCCO1 (stereo unspecified) | inconclusive [inhibitor, single point]
4 | CCN(C(=O)CSc1nc2ccccc2[nH]1)C1CCS(=O)(=O)C1 (stereo unspecified) | inactive
5 | CCN(CC)CCOCCOc1ccccc1F | inactive
6 | O=C(Nc1ccc(C(F)(F)F)cc1)c1ccc(NC(=O)C2CCCO2)cc1 (stereo unspecified) | inconclusive [inhibitor, single point]
7 | Cc1ccccc1N1CCN(CCCN2C(=O)CC(=C(c3ccccc3)c3ccccc3)C2=O)CC1 | inconclusive [inhibitor, single point]
8 | COCC(C)n1c(SCc2cc(=O)n3cc(C)ccc3n2)nc2ccccc2c1=O (stereo unspecified) | inconclusive [inhibitor, single point]
9 | CCn1c(COc2c(C)cccc2C)nnc1SCC(=O)N1CCN(c2ccccc2)CC1 | active: 35.5 µM
10 | CCOC(=O)C1CCCN(CC(=O)Nc2c(C(=O)OC)[nH]c3ccccc23)C1 (stereo unspecified) | inconclusive [inhibitor, partial curve]
11 | Cc1cc(C(=O)COC(=O)c2ccc(NC(=O)CC#N)cc2)c(C)n1C1CC1 | inconclusive [inhibitor, full curve]
12 | Cc1cc(SCC(=O)c2cc3ccccc3o2)nc2ccccc12 | inconclusive [inhibitor, single point]
13 | Cc1cccc(NC(=S)NC(=O)Cc2ccccc2)c1C | inconclusive [inhibitor, single point]
14 | Cc1noc(C)c1C(=O)N1CCOCC1 | inactive
15 | Cc1ccc(CNCC(O)(c2ccccc2)c2ccc(F)cc2)cc1 (stereo unspecified) | inactive
16 | CCCCCCn1cc(C(=O)O)c(=O)c2ccccc21 | inconclusive [inhibitor, single point]
17 | COc1cccc(CNC(=O)COc2ccc(C(=O)c3ccccc3)cc2)c1 | inconclusive [inhibitor, partial curve]
18 | COc1ccc(C(C)=O)c(Oc2nc(CN3CCOCC3)nc3scc(-c4cccs4)c23)c1 | inconclusive [inhibitor, single point]
19 | O=C(Nc1ccccn1)C1CCCN(c2ncnc3c2nc2n3CCCCC2)C1 (stereo unspecified) | inactive
20 | Cc1ccc2c(c1)-n1c(nc3ccccc3c1=O)C(Cc1ccccc1)NC2=O (stereo unspecified) | inactive
21 | CC(=O)Nc1ccc(OCC(O)CN2CCN(S(=O)(=O)c3ccc(NC(C)=O)cc3)CC2)cc1 (stereo unspecified) | inactive
22 | CCC(=O)c1ccc(OCCn2cnc3ccccc32)cc1 | inconclusive [inhibitor, partial curve]
23 | CCN(CC)C(=O)CSc1nnc2nnc3cc(OC)ccc3n12 | inactive
24 | Cc1cc(C)cc(NC(=O)CN2CCC(NC(=O)c3cccc(F)c3)CC2)c1 | inactive

Row | Structure (SMILES) | Potency
25 | CC(NCc1ccccc1O)c1ccccc1 (stereo unspecified) | inactive
26 | CCOC(=O)c1cc(-c2ccccc2)nc2nc(N(CC)CC)sc12 | active: 14.1 µM
27 | COc1ccccc1NC(=O)CSc1ccc(-c2ccc(-n3ccnc3)cc2)nn1 | inconclusive [inhibitor, partial curve]
28 | O=C(Nc1ccccc1)N1CC=C(c2ccc(F)cc2)CC1 | inconclusive [inhibitor, full curve, poor fit]
29 | CCN(CC)S(=O)(=O)c1ccc(OC)c(NC(=S)Nc2ccc(C)c(C)c2)c1 | inconclusive [inhibitor, single point]
30 | CC1(C)Cc2c(sc(NC(=O)C(=O)N3CCCCC3)c2C(=O)O)CO1 | inconclusive [inhibitor, single point]
31 | Cc1ccc(S(=O)(=O)N2CCC(C(=O)OCC(=O)N3CCCC(C)C3)CC2)cc1C (stereo unspecified) | inactive
32 | O=C(Nc1sc2c(c1C(=O)NC1CCCCC1)CCC2)c1ccco1 | inconclusive [inhibitor, partial curve]
33 | O=[N+]([O-])c1ccc(/C=N/Nc2nc(-c3ccccc3)c3cc(Br)ccc3n2)o1 | inconclusive [inhibitor, partial curve, poor fit]
34 | COc1ccc(CC(=O)NNC(=O)CSc2nc(C)c(C)c(=O)[nH]2)cc1 | inactive
35 | COC(=O)c1ccc2c(=O)n(-c3ccccc3)c(SCN3C(=O)c4ccccc4C3=O)nc2c1 | inconclusive [inhibitor, single point]
36 | O=C(CCC1CCCCC1)N1CCN(Cc2ccc3c(c2)OCO3)CC1 | inconclusive [inhibitor, single point]
37 | Cc1ccc(C)c(OCc2cc(C(=O)N(C)Cc3nccn3C)no2)c1 | inactive
38 | CCC(C)NC(=S)Nc1ccc(C(=O)OC)cc1 (stereo unspecified) | inconclusive [inhibitor, partial curve]
39 | O=S(=O)(c1ccc(Br)c2nsnc12)N1CCOCC1 | inactive
40 | COc1ccc(-c2nc(S(=O)(=O)c3ccccc3)c(N3CCOCC3)o2)cc1 | inactive
41 | CCCN(CCC)CC(O)Cn1cc(/C=C/C(=O)c2ccccc2)c2ccccc21 (stereo unspecified) | inconclusive [inhibitor, partial curve]
42 | CS(=O)(=O)c1nc(S(=O)(=O)c2ccc(Cl)cc2)c(NCCN2CCOCC2)s1 | inactive
43 | N#CC1CCCc2c1[nH]c1ccc([N+](=O)[O-])cc21 (stereo unspecified) | inconclusive [inhibitor, partial curve]
44 | Cc1ccc2c(c1)c1c3n2CCN(C(=O)CN2CCN(C)CC2)C3CCC1 (stereo unspecified) | inconclusive [inhibitor, partial curve]
45 | O=C1NC(Cc2ccccc2)c2nc3cc(Cl)ccc3c(=O)n2-c2ccccc21 (stereo unspecified) | active: 3.55 µM
46 | O=C(COC(=O)COc1ccc(Cl)cc1Cl)NC1CCCC1 | inconclusive [inhibitor, partial curve, poor fit]
47 | O=C(c1ccc([N+](=O)[O-])cc1)N1CCN(Cc2ccccc2[N+](=O)[O-])CC1 | inactive
48 | O=C(Cc1ccccc1)N/N=C/c1ccc2cccc(O)c2n1 | inconclusive [inhibitor, single point]

Row | Structure (SMILES) | Potency
49 | O=C(CCCc1ccccc1)N1CCN(c2ccc([N+](=O)[O-])cc2)CC1 | inconclusive [inhibitor, single point]
50 | Cc1c(C2Nc3ccccc3NC3=C2C(=O)CC(C)(C)C3)cnn1C (stereo unspecified) | inactive
51 | Cc1ccc2nc(N3CCN(C(=O)c4ccc(F)cc4)CC3)c(C#N)cc2c1 | inconclusive [inhibitor, single point]
52 | O=C(NCc1cccs1)c1ccc(Cl)c(S(=O)(=O)N2CCCC2)c1 | inactive
53 | COc1ccc(-c2[nH]ncc2[C@@H]2C[C@H]3CN(Cc4ccccc4C)C(=O)[C@]34CCCN24)cc1 | inconclusive [inhibitor, single point]
54 | COC(=O)c1sc(-c2cccs2)cc1N | inconclusive [inhibitor, partial curve, poor fit]
55 | CCOc1ccccc1NC(=O)Cn1c(=O)n(-c2ccc(OC)cc2OC)c(=O)c2c(C)c(C(=O)N(CC)CC)sc21 | inconclusive [inhibitor, partial curve]
56 | CC(C)(C)C1CCC2(CC1)C(C#N)=C(SCC(=O)NC1CCCCC1)NC(=O)C2C#N (stereo unspecified) | inactive
57 | COc1ccc(OC)c(CCNC(=O)c2nn(C)c3c2CS(=O)(=O)c2ccccc2-3)c1 | inconclusive [inhibitor, partial curve]
58 | Nc1ccc(S(=O)(=O)Nc2nc3ccccc3o2)cc1 | inactive
59 | CCOC(=S)SCC(=O)Nc1nc(C)c(C)s1 | inconclusive [inhibitor, single point]
60 | COc1ccc(S(=O)(=O)N2CCC3(CC2)OCCN3S(=O)(=O)c2c(C)cc(C)cc2C)cc1 | inconclusive [inhibitor, partial curve]
61 | COC(=O)c1c(NC(=O)C(C)C)sc2c1C(C(=O)OC)CC2 (stereo unspecified) | inconclusive [inhibitor, full curve, poor fit]
62 | Cc1cc(NC(=O)c2cccnc2)ccc1NC(=O)c1cc2ccccc2o1 | inconclusive [inhibitor, partial curve]
63 | c1cncc(C2Nc3cccc4cccc(c34)N2)c1 | inactive
64 | N#CCCN(C(=O)COC(=O)c1nc(Cl)ccc1Cl)c1ccccc1 | inactive
65 | Brc1ccc(-c2csc(N/N=C/c3cccnc3)n2)cc1 | inconclusive [inhibitor, single point]
66 | COc1cc(/C=C/C(=O)/C=C(O)/C=C/c2ccc(O)c(OC)c2)ccc1O | inconclusive [inhibitor, single point]
67 | COCCN(CC(=O)Nc1cccc(C)c1C)C(=O)c1cc(S(=O)(=O)N2CCCC2)ccc1C | inconclusive [inhibitor, single point]
68 | CC(=O)COc1ccc2c(c1C)O/C(=C\c1ccco1)C2=O | inconclusive [inhibitor, single point]
69 | CC(C)C(NS(=O)(=O)c1cccs1)C(=O)Nc1nc(C(C)(C)C)cs1 (stereo unspecified) | inconclusive [inhibitor, single point]
70 | Cc1nnc(Oc2ccccc2)c2ccccc12 | inconclusive [inhibitor, single point]
71 | COC(=O)c1cccc(NC(=O)CSc2nnc(COc3ccc(C#N)cc3)n2-c2ccccc2)c1 | inconclusive [inhibitor, full curve]
